This is an account of results in the RNAGym collection of RNA variant scans (doi:10.7554/elife.90254).

First the molecules themselves.
B1: LINE1-full (parent)
chain: UACGUAGGUGGUUUUCCCCUGAUAGUGCUAAGGGGGCCUGGAAGUUUGGACUGGGCAGAGCUCAACACAGCGUGGCAAAGUGGCUGUGGCUAGACUGCCUCUCUGGAUUCCUCGUCACUCAGCAGGGCAUCUCUGAGAGAAAUGCC

The source gives no read counts; variants with many changes may rest on few reads.

The variants in the data set derive from B1. The data set is described as follows: self-cleavage, relative activity (ratio to wild type); higher = more cleavage; in vitro, sequencing; the parent is a self-cleaving ribozyme.
As for UACGUAGGUGGUUUUCCCCUGAUAGUGCUAAGGGGGCCUGGAAGCUUGGACUGGGCAGAGCUUAACACAGCGUGGCAAAGUGGCUGUGGCUAGACUGCCUCUCUGGAUUCCUCAUCACUCAGCAGGGCAUCUCUGAGAGAAAUGCC [U45C C63U G114A], the self-cleavage stood at 0.25. Regarding UACGUAGGUGGUUUUCCCCUGAUAGUGCUAAGGGGGCCUGGAAGCAUGGACCGGGCAGAGCUCAACACAGCGUGGCAAAGUGGCUGUGGCUAGACUGCCCCUCUGGAUUCCUCGUCACUCAGCAGGGCAUCUCUGAGAGAAAUGCC [U45C U46A U52C U100C], the self-cleavage was determined as 2.3.

Regarding UACGUAGGUGGUUUUCCCCUGAUAGUGCUAAGGGGGCCUGGAAGCUUGGACUGGGCAGAGCUCAACACAGCGUAGCAAAGUGGCUGUGGCUAGACUGCCUCUCUGGAUUCCUCGUCACUCAGCCGGGCAUCUCUGAGAGAAAUGCC [U45C G74A A124C], the self-cleavage was determined as 1.43. Next, UACGUAGGUGGUUUUCCCCUGAUAGUGCUAAGGGGGCCUGGAAGCUUGGACUGGGCAGAGCUCAACACAGCAUGGCAAAGUGGCUGUGGCUAGACGGCCUCUCUGGAUUCCUCGUCACUCAGCAGGGCAUCUCUGAGAGAAAUGCC [U45C G72A U96G]: 0.03. Next, UACGUAGGUGGUUUUCCCCUGAUAGUGCUAAGGGGGCCUGGAAGCUUGGACUGGGCAGAGCUCAACACAGCGUGGCAAAGUGGCUGUGGCUGGACUGCCUCUCUGGAUUCCUCGUCACUCAGCAAGGCAUCUCUGAGAGAAAUGCC [U45C A92G G125A]: 0.13; UACGUAGGUGGUUUUCCCCUGAUAGUGCUAAGGGGGCCUGGAAGCUUGGACUGAGCAGAGCUCAACACAGCGUGGCAGAGUGGCUGUGGCUAGACUGCCUCUCUGGAUUCCUCGUCACUCAGCAGGGCAUCUCUGAGGGAAAUGCC [U45C G54A A78G A138G]: 0.19; UACGUAGGUGGUUUUCCCCUGAUAGUGCUAAGGGGGCCUGGAAGCUUGGACUGGGUAGAGCUCAACACAGCGUGGCAAAGUGGCUGUGGCUAGACUGCCUCUCUGGAUUCCUCGUCACUCAGCAGGGCAUCUCUGUGAGAAAUGCC [U45C C56U A136U]: 0.15.

Regarding UACGUAGGUGGUUUUCCCCUGAUAGUGCUAAGGGGGCCUGGAAGCUUGGACUGGGCAGAGCUCAACACAGCGUGGCAAAGUGGCUGUGGCUAGGCUGCCUCUCUAGAUUCCUCGUCACUCAGCAGGGCAUCCCUGAGAGAAAUGCC [U45C A94G G105A U132C], the self-cleavage turned out to be 0.25. In the case of UACGUAGGUGGUUUUCCCCUGAUAGUGCUAAGGGGGCCUGGAAGCCUGGACUGGGCAGAGCUCAACACAGCGUGGCAAAGUGGCUGUGGCUAGACUGCCUCUCUGGAUUCCUCGUCACUCAGCAGGGCAUCUCUGAGAGGAAUGCC [U45C U46C A140G], the self-cleavage is 1.27.

As for UACGUAGGUGGUUUUCCCCUGAUAGUGCUAAGGGGGCCUGGAAGCUUGGACUGGGCAGAGCUCAACACAGAGUGGCAAAGUGGCUGUGGCUAGACUGCCACUCUGGAUUCCUCGUCACUCAGCAGGGCAUCUCUGAGAGAAAUGCC [U45C C71A U100A], the self-cleavage was determined as 0.1. Next, UACGUAGGUGGUUUUCCCCUGAUAGUGCUAAGGGGGCCUGGAAGCUUGGACUGGACAGAGCUCAACACAGCGUGGCAAAGUGGCUGUGGCUAGACUGCCUCUCUGGAUUCCUCGUCACUCAGCAGGGCAUCUCUGAGAGAAGUGCC [U45C G55A A142G]: 0.2; UACGUAGGUGGUUUUCCCCUGAUAGUGCUAAGGGGGCCUGGAAGCUUGAACUGGGCAGAGCUUAACACAGCGAGGCAAAGUGGCUGUGGCUAGACUGCCUCUCUGGAUUCCUCGUCACUCAGCAGGGCAUCUCUGAGAGAGAUGCC [U45C G49A C63U U73A A141G]: 0.24; UACGUAGGUGGUUUUCCCCUGAUAGUGCUAAGGGGGCCUGGAAGCUUGGACUGGGCAGAGCUCAACACAGCGUGGCAAAGUGGCUGUGGCUAGACUGCCUCUCUGGAUUCCUCGUCACUCAGCAUGGCAUCUCUGAGAGAAGUGCC [U45C G125U A142G]: 2.03.

Take UACGUAGGUGGUUUUCCCCUGAUAGUGCUAAGGGGGCCUGGAAGCUUGGACUGGGCAGAGCUCAACACAGCCUGGCUGAGUGGCUGUGGCUAGACUGCCUCUCUGGGUUCCUCGUCACUCAGCAGGGCAUCUCUGAGAUAAAUGCC [U45C G72C A77U A78G A107G G139U]: the self-cleavage is 1.25. The same measure for UACGUAGGUGGUUUUCCCCUGAUAGUGCUAAGGGGGCCUGGAAGCUUGGACUGGGCAGAGCUCAACACAGCGUGGCAAAGUGGCUGUGGCUAGACUGCCUCUCUGGAUUCCUCGUCACUCUGCAGGGCAUCUCUGAGGGAAAUGCC [U45C A121U A138G]: 1.47; for UACGUAGGUGGUUUUCCCCUGAUAGUGCUAAGGGGGCCUGGAAGCUUGGACUGGGCAGAGCUCAACACAGCGUGGCAAAGUGGCUGUGGCUAGACUGCCUCUCUGAAUUCCUCGUCAUUCAGCAGGGCAUCUCUGAGAGAAAUGCC [U45C G106A C118U]: 0. In the case of UACGUAGGUGGUUUUCCCCUGAUAGUGCUAAGGGGGCCUGGAAGCUUGGACUGGGCAGAGCUCAACACAGCGUGGCAAAGUGGCUGUGGCUAGUCUGCCUCUCUGGAUUCCCCGUCACUCAGCAGGGCAUCUCUGAGAGAAAUGCC [U45C A94U U112C], the self-cleavage amounted to 0.23. Next, UACGUAGGUGGUUUUCCCCUGAUAGUGCUAAGGGGGCCUGGAAGCUUGGACUGGGCAGAGCUCAACACAGAGUGGCAAAGUGGCUGUGGCUAGACUGCCUCUCCGGAUUCCUCGUCACUCAGCAGGGCAUCUCUGAGAGAAAUGCC [U45C C71A U104C]: 2.02; UACGUAGGUGGUUUUCCCCUGAUAGUGCUAAGGGGGCCUGGAAGCCUGGACUGGGCAGAGCUCAACACAGCGUGGCAAAGUGGCUGUGGCUAGACUGCCUCUCUGGAUUCCUCGUCACUCAGCAGGGCAUCUCUGAGAGAAACGCC [U45C U46C U143C]: 0.88; UACGUAGGUGGUUUUCCCCUGAUAGUGCUAAGGGGGCCUGGAAGCUUGUACUGGGCAGAGCUCAACACAGCGUGGCAAAGUGGCUGUGGCUAGACUGCCUCUCUGGAUUCCUCGUCACUCAGCAGGGCAUCUCUGAGGGAAGUGCC [U45C G49U A138G A142G]: 0.94. For the variant UACGUAGGUGGUUUUCCCCUGAUAGUGCUAAGGGGGCCUGGAAGCUUGGACUGGGCAGAGCUCAACACAGCGUGGCAAAGUGGCUGUGGCUAGACUGCCUCUCUGGAUUCCUCGUCACUCGGCAGGGCAUCUCUGAGAGAGGUGCC [U45C A121G A141G A142G], the self-cleavage turned out to be 0.98.

In the case of UACGUAGGUGGUUUUCCCCUGAUAGUGCUAAGGGGGCCUGGAAGCUUGGACUGGGCAGAGCUCAACACAGAGUGGCAAAGUGGCUGCGGCUAGACUGCCUCUCUGGAUUCCUCGUCACUCAGCAGGGCAUCUCUGAGAGAAAUGCC [U45C C71A U87C], the self-cleavage is 0.05.

As for UACGUAGGUGGUUUUCCCCUGAUAGUGCUAAGGGGGCCUGGAAGCUUGGACUGGGCAGAGCUCAACACAGCGUGGCAAAGUGGCUGUGGCUAGACUGCCUCUCUGGGUUCCUCGUCACUCAGCAGGGGAUCUCUGAGAGAAAUGCC [U45C A107G C128G], the self-cleavage came to 1.04. For UACGUAGGUGGUUUUCCCCUGAUAGUGCUAAGGGGGCCUGGAAGCUUGGACUGGGCAGACCUCGACACGGCGUGGCAAAGUGGCUGUGGCUAGACUGCCUCUCUGGAUUCCUCGUCACUCAGCAGGGCAUCUCUGAGAGAAAUGCC [U45C G60C A64G A69G], the self-cleavage was 0.

With UACGUAGGUGGUUUUCCCCUGAUAGUGCUAAGGGGGCCUGGAAGCUUGGACUGGGCAGAGCUCAACACAGCGUGGCAAAGUGGCUGUGUCUAGACUGCCUCUCUGGAUUCCUCGUCACUCAGCAGGGCAUCUCUGUGAGAAAUGCC [U45C G89U A136U], the self-cleavage turned out to be 0.01. Next, UACGUAGGUGGUUUUCCCCUGAUAGUGCUAAGGGGGCCUGGAAGCUUGGACUGGGCAGAGCUCAACACAGCGUGGCAAAGUGGCUGUGGCUAGACUGCCUCUCUGGAUUCCUCGUCACUCAGCAGGGCAUCUCUGGGAGAAGUGCC [U45C A136G A142G]: 2.19. The same measure for UACGUAGGUGGUUUUCCCCUGAUAGUGCUAAGGGGGCCUGGAAGCUAGGACUGGGCAGAGCUCAACACAGUGUGGCAAAGUGGCUGUGGCUAGACUGCCUCUCUGGAUUCCUCGUCACUCAGCAGGGCAUCUCUGAGAGAAAUGCC [U45C U47A C71U]: 0.98; for UACGUAGGUGGUUUUCCCCUGAUAGUGCUAAGGGGGCCUGGAAGCUUAGACUGGGCAGAGCUCAACACAGCGUGGCAAAGUGGCUGUGGCUAGACUGCCUCUCUGGAUUCCACGUCACUCAGCAGGGCAUCCCUGAGAGAAACGCC [U45C G48A U112A U132C U143C]: 1.53.

For the variant UACGUAGGUGGUUUUCCCCUGAUAGUGCUAAGGGGGCCUGGAAGCUUGGACUGGGCAAAGCUCAACACAGCGUGGCAAAGUGGCUGUGGCUAGACUGCCUCUCUGGAUUCCCCGUCACUCAGCAGGGCAUCUCUGAGAGAAAUGCC [U45C G58A U112C], the self-cleavage stood at 0.03.

For UACGUAGGUGGUUUUCCCCUGAUAGUGCUAAGGGGGCCUGGAAGCUAGGACUGGGCAGAGCUCAACGCAGCGUGGCAAGGUGGCUGUGGCUAGACUGCCUCCCUGGAUUCCUCGUCACUCAGCAGGGCAUCUCUGAGAGAAAUGCC [U45C U47A A67G A79G U102C], the self-cleavage amounted to 0. The same measure for UACGUAGGUGGUUUUCCCCUGAUAGUGCUAAGGGGGCCUGGAAGCUUGGACUGGGCAGAGCUCAACACAGCGUGGCAAAGUGGCUGUGGCUAGGCUGCCUCUCUGGAUUCCUCGUCACUCAGCAGGGCAUCCCUGAGUGAAAUGCC [U45C A94G U132C A138U]: 0.66.

For the variant UACGUAGGUGGUUUUCCCCUGAUAGUGCUAAGGGGGCCUGGAAGCUUGGACUGGGCAGAGCUCAACAUAGCGUGGCAAAGUGGCUGUGGCUAGACUGCCUCUCUGGAUUCCUCGUCACUCAGCAGGGCACCUCUGAGAGAAAUGCC [U45C C68U U130C], the self-cleavage was determined as 0.27. The same measure for UACGUAGGUGGUUUUCCCCUGAUAGUGCUAAGGGGGCCUGGAAGCUUGGACAGGGCAGAGCUCAACACAGCGUGGCAAAGUGGCUGUGGCUAGACUGCCUCUCUGGAUUCCUCAUCACUCAGCAGGGCAUCUCUGAGAGAAAUGCC [U45C U52A G114A]: 1.15. Next, UACGUAGGUGGUUUUCCCCUGAUAGUGCUAAGGGGGCCUGGAAGCUUGGACUGGACAGAGCUCAACACAGCGUGGCAAAGUGGCUGUGGCUAGACUGCCACUCUGGAUUCCUCGUCACUCAGCAGGGCACCUCUGAGAGAAACGCC [U45C G55A U100A U130C U143C]: 0.12; UACGUAGGUGGUUUUCCCCUGAUAGUGCUAAGGGGGCCUGGAAGCUUGGACUGGGCAGAGCUCAACACAGCGUGGCAAAGUGGCUGUGGCUGGACUGCCUCUCAGGAUCCCUCGUCACUCAGCAGGGCAUCUCUGAGAGAAAUGCC [U45C A92G U104A U109C]: 0; UACGUAGGUGGUUUUCCCCUGAUAGUGCUAAGGGGGCCUGGAAGCUUGGACUGGGCAGAGCUCAACACAGCGUGGCAAAGUGGCUGUGGCUAAACUGCCUCUCCGGGAUCCUCGUCACUCAGCAGGGCAUCUCUGAGAGAAAUGCC [U45C G93A U104C A107G U108A]: 0.1. Next, UACGUAGGUGGUUUUCCCCUGAUAGUGCUAAGGGGGCCUGGAAGCUUGGACUGGGCAGAGCUCAAUACAGCGUGGCAAAGUGGCUGUGGCUAGACUGCCUCUCUGGAUUCCUCGUCACUCAGCAGGGCAUCUCUGAGAGAAACGCC [U45C C66U U143C]: 0.08; UACGUAGGUGGUUUUCCCCUGAUAGUGCUAAGGGGGCCUGGAAGCUUGGACUGGGCAGAGCUCAACACAGCGUGGCAAAGUGGAUGUGGCUAGACUGCCUCUCUGGAUUCCUCGUCACUCAGCAGGGCAUCUCUGAGAGAAACGCC [U45C C84A U143C]: 0.18. As for UACGUAGGUGGUUUUCCCCUGAUAGUGCUAAGGGGGCCUGGAAGCCUGGACUGGGCAGAGCUCAACACAGCGUGGCAAAGUGGCUGUGGCUAGACUGCCUCUCUGGAUUCCUCGUCACUCAGCAGGGCAUCCCUGAGAGAAAUGCC [U45C U46C U132C], the self-cleavage is 1.31.
